Data from PubChem BioAssay (NCI).
Where “and” joins values, the source holds several entries; their conditions need not be identical. Equal entries are not always repeated.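 Step 1: Grow cells in 96-well plates. Step 2: Expose to compound for 48 hours at 5 concentrations. Step 3: Interpolate endpoints linearly; if unreached, use highest concentration. GI50 marks 50% less growth. TGI: total growth inhibition.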

Each compound was assayed on NCI-H322M lung (assay: growth of human tumour cells (NCI), 48 h).
`CN(/N=C/c1cccc2cccnc12)c1c([N+](=O)[O-])cc([N+](=O)[O-])cc1[N+](=O)[O-]` was tested, and the TGI was > 100 µM.
In the case of `CCOC(=O)C(C)c1nc2ccc(C(F)(F)F)cc2[nH]c1=O` (configuration not stated), the TGI was > 100 µM.
`CCCCCCCC(=O)OCC(=O)[C@]1(O)Cc2c(O)c3c(c(O)c2[C@@H](OC2CC(N)C(O)C(C)O2)C1)C(=O)c1c(OC)cccc1C3=O` (some centres not stated) was tested, and the GI50 was 0.506 µM and the TGI was 2.39 µM.
In the case of `CC1(C)OC[C@@H](O)[C@H](Br)CO1`, the TGI was > 100 µM.
Work on `O=S(=O)(Nc1ccc(F)c(Cl)c1)c1ccc(-c2cnc(C3CC3)o2)cc1` yielded a GI50 of 0.656 µM and a TGI of 17.5 µM.
For `O=C(CCc1nnc2s/c(=C\c3ccccc3Cl)c(=O)n12)Nc1cc(Cl)ccc1Cl`, the TGI was > 100 µM.
In the case of `CC1C2=C(CCCC2=O)N(c2ccc(Cl)cc2)C2=C1C(=O)CCC2`, the TGI was > 100 µM.
For `CC/C=C/C[C@H](O)[C@H]1C[C@H]2O[C@H](CC(=O)OC)C[C@H]2O1`, the TGI was > 100 µM.
`COC(=O)/C=C\C(C#N)(C#N)N=Cc1sccc1C` showed a TGI of 31.1 µM.
In the case of `CC(=O)c1cc(C(=O)c2ccc3c(c2)Sc2ccccc2N3)c2c(C)cccn12`, the GI50 was 0.701 µM and the TGI was > 100 µM.
With `CN(C)c1cccc2c1C(=O)C=CC21CCc2ccc(N(C)C)c3c(N(C)C)ccc1c23` (configuration not stated) the TGI was 31.5 µM.
`CCOC(=O)c1ccc2c(c1)[n+](=O)c(C(C)=O)c(C(F)(F)F)n2[O-]` gave a GI50 of 2.67 µM and a TGI of 9.84 µM.
With `C=CCN(c1cc(OC)c2[nH]c(C(=O)OCC)c(C)c2c1[N+](=O)[O-])S(C)(=O)=O` the TGI was 84.9 µM.
For `C=CCCCCOC1C=CC(O)C(CO)O1` (configuration not stated), the TGI was > 100 µM.
With `CC[N+](C)(CC)CC(C)(C)C(=O)/C=C/c1ccc(/C=C/C(=O)C(C)(C)C[N+](C)(CC)CC)cc1` the TGI was > 100 µM.
With `NC1Cc2ccccc2OC1=O` (configuration not stated) the TGI was > 100 µM.
`COc1cc2c(=O)n(CCN(C)C)c3c4cc5c(cc4ccc3c2cc1OC)OCO5` gave a GI50 of 0.373 µM and a TGI of 2.99 µM.
In the case of `COc1cccc2c1C(=O)OC2c1cccc2ccccc12` (configuration not stated), the TGI was > 100 µM.
With `Cc1ccc2[nH]c3[nH]c(=S)[nH]c(=O)c3c2c1` the TGI was > 100 µM.
`COc1ccc(Cn2cc3c(c2-c2ccccc2)CCc2cnoc2-3)cc1N` was tested, and the GI50 was 0.444 µM and the TGI was > 100 µM.
Compound `O=[N+]([O-])/C(C(Cl)=C(Cl)Cl)=C(\N1CCCCC1)n1nnc2ccccc21` has a TGI of 32.4 µM.
For `NC(=Nc1cccc(Cl)c1)c1ccccc1N`, the TGI was > 100 µM.
With `Cc1cn(-c2ccc(S(C)(=O)=O)cc2)c(-c2ccc(Cl)cc2)n1` the GI50 was > 100 µM and the TGI was > 100 µM.
With `CN(C)c1ccc(C(c2ccc(Cl)cc2)c2ccc(N(C)C)cc2)cc1` the TGI was > 100 µM.
For `CCN(CC)c1ccc2cc(C(=O)Nc3ccc(C)cc3)c(=N)oc2c1`, the TGI was > 100 µM.
In the case of `O=C(N/N=C/c1cc(Cl)cc(Cl)c1[O-])c1ccccc1.O=C(N/N=C/c1cc(Cl)cc(Cl)c1[O-])c1ccccc1.[Co+2]`, the GI50 was 24.5 µM and the TGI was > 100 µM.
In the case of `COP(=O)(OC)/C(=C/c1cn(C(c2ccccc2)(c2ccccc2)c2ccccc2)cn1)NC=O`, the TGI was 58.8 µM.
For `COC(=O)/C=C(\S/C=C(/c1ccccc1)N1CCn2c(C(=O)c3ccccc3)c(C(=O)OC)c(C(=O)OC)c21)C(=O)OC`, the TGI was > 10 µM.
With `O=C1CSC2=NC3=C(CSC/C3=C\c3ccccc3)C(c3ccccc3)N12` (configuration not stated) the TGI was > 100 µM.
In the case of `Oc1[nH]c2ccccc2c1N=Nc1c(F)c(F)c(F)c(F)c1F`, the TGI was > 100 µM.
With `O=c1oc2ccc(-c3ccc(F)cc3F)cc2c(=O)n1-c1ccc(Cl)c(C(F)(F)F)c1` the GI50 was 3.32 µM and the TGI was > 100 µM.
`CC1(C)CC(=O)c2c(nc3c(ccc4ccccc43)c2-c2ccc(NC(=O)CCCCC(=O)Nc3ccc(-c4c5c(nc6c4ccc4ccccc46)CC(C)(C)CC5=O)cc3)cc2)C1` showed a TGI of 91.2 µM.
In the case of `CC1(C)CCCCCC(C)(CCCO)C1=O` (configuration not stated), the TGI was > 100 µM.
Compound `CC12CCC3c4cc(Br)c(O)c(Br)c4CCC3C1CCC2O` (configuration not stated) has a TGI of 34.2 µM.
`N#CCN(CC#N)C1CC=CCC1N(CC#N)CC#N` (configuration not stated) was tested, and the TGI was > 100 µM.
In the case of `CCOC(=O)C(O)(C(=O)OCC)c1cc(C(C)(C)C)c(O)c(C(C)(C)C)c1`, the TGI was > 100 µM.
With `NC(=S)N=Nc1c(O)c2ccccc2c2ccccc12` the GI50 was 27.5 µM and the TGI was > 86.8 µM.
`CSc1c(CC(=O)Nc2ccc(Cl)cc2)n(Cc2ccccc2)c2ccccc12` was tested, and the TGI was > 100 µM.
With `COc1cc(C2C3=C(COC3=O)N(CCO)c3cc4c(cc32)OCO4)cc(OC)c1O` (configuration not stated) the GI50 was 3.13 µM and the TGI was > 50 µM.
For `N#Cc1c(-c2ccc(Cl)cc2)c2c(N=Nc3c(O)ccc4ccccc34)[nH]nc2[nH]c1=O`, the TGI was 2.72 µM.
`COc1ccc2c3c1OC1C34CCN(C)C(C2)C4=CC(I)C1(OC)OC` (configuration not stated) was tested, and the TGI was 30.9 µM.
With `N#C/C(N)=C(\C#N)N=CNc1ccc(N)cc1` the TGI was > 100 µM.
With `NCCCCCCNCc1cccc2ccccc12` the TGI was > 100 µM.
For `O=S(=O)(/N=C(\NO)Nc1ccc(Cl)cc1)c1ccccc1`, the TGI was 50.8 µM.
Compound `Nc1ccccc1C#C/C=C\C#Cc1c(F)c(F)c(F)c(F)c1F` has a GI50 of 25.3 µM and a TGI of 89 µM.
Work on `COc1ccc(C2C=C(c3ccc(Cl)cc3)N=C3SC=C(C)N32)c(Br)c1` (configuration not stated) yielded a GI50 of 5.76 µM and a TGI of 19.4 µM.
`Cc1cnc(Nc2ccc(N3CCN(C)CC3)cc2)nc1Nc1ccc(Cl)c(NS(=O)(=O)C(C)(C)C)c1` was tested, and the GI50 was 0.214 µM and the TGI was 15.6 µM.
`C=CCc1cc(C(Cc2ccccc2)NC(C)C)cc(OCc2ccccc2)c1OCc1ccccc1` (configuration not stated) gave a TGI of 28.7 µM.
In the case of `CC(CN(C)C)C(=O)c1ccccc1` (configuration not stated), the TGI was > 100 µM.
With `COc1cc(C2c3cc4c(cc3[C@@H](Oc3ccc(F)cc3)C3COC(=O)[C@H]23)OCO4)cc(OC)c1O` (some centres not stated) the TGI was > 100 µM.
With `O=S(=O)(O)c1ccc2c(N=Nc3ccc(Cl)cc3)c(O)ccc2c1` the TGI was > 100 µM.
With `CC(C)(C)OC(=O)Cn1ncn(NC(=O)Cc2ccccc2)c1=O` the TGI was > 10 µM.
For `C/C=C/COC(=O)CO[N+](=O)[O-]`, the TGI was > 100 µM.
`Cc1ccc2oc3c(c(Br)c(Br)n3C)c(=O)c2c1` gave a TGI of 65.3 µM.
`ClCc1cccc(CSc2ncnc3c2ncn3Cc2cccc(CCl)c2)c1` showed a GI50 of 2.15 µM and a TGI of 4.45 µM.
With `CN1CCN(CCOc2cc(OC3CCOCC3)c3c(Nc4c(Cl)ccc5c4OCO5)ncnc3c2)CC1` the GI50 was 0.362 µM and 0.38 µM and the TGI was 13 µM and > 10 µM.
In the case of `COc1ccc2nc3n(c2c1)C(=O)c1ccccc1-3`, the TGI was > 100 µM.
For `Cn1c(=O)c2[nH]cnc2n(CC(N)=O)c1=O`, the TGI was > 100 µM.
In the case of `CNC(=O)OC(COC)CN1CCN(c2ccccc2C)CC1` (configuration not stated), the TGI was > 10 µM.
`CNS(=O)(=O)OCC1OC(n2cnc3c(N)ncnc32)C(O)C1O` (configuration not stated) was tested, and the GI50 was > 100 µM and the TGI was > 100 µM.
